# Test results published in publication PMC4336329 (PLoS ONE, 2015).
# Hit rate of the full screen: of about 310,000 compounds, about 14,000 (4.5%) showed an effect of 50% or more. Effects have a minus sign here. This is one part of the list.
# Target: human ether-à-go-go-related gene (hERG) potassium channel (human, UniProt Q12809)
# Test: primary screen, population patch clamp on CHO cells stably expressing hERG
# 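Also: peak tail current of the secondary pulse compared with the same well before compound.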
# Sequence of human ether-à-go-go-related gene (hERG) potassium channel (Q12809 whole entry, looked up): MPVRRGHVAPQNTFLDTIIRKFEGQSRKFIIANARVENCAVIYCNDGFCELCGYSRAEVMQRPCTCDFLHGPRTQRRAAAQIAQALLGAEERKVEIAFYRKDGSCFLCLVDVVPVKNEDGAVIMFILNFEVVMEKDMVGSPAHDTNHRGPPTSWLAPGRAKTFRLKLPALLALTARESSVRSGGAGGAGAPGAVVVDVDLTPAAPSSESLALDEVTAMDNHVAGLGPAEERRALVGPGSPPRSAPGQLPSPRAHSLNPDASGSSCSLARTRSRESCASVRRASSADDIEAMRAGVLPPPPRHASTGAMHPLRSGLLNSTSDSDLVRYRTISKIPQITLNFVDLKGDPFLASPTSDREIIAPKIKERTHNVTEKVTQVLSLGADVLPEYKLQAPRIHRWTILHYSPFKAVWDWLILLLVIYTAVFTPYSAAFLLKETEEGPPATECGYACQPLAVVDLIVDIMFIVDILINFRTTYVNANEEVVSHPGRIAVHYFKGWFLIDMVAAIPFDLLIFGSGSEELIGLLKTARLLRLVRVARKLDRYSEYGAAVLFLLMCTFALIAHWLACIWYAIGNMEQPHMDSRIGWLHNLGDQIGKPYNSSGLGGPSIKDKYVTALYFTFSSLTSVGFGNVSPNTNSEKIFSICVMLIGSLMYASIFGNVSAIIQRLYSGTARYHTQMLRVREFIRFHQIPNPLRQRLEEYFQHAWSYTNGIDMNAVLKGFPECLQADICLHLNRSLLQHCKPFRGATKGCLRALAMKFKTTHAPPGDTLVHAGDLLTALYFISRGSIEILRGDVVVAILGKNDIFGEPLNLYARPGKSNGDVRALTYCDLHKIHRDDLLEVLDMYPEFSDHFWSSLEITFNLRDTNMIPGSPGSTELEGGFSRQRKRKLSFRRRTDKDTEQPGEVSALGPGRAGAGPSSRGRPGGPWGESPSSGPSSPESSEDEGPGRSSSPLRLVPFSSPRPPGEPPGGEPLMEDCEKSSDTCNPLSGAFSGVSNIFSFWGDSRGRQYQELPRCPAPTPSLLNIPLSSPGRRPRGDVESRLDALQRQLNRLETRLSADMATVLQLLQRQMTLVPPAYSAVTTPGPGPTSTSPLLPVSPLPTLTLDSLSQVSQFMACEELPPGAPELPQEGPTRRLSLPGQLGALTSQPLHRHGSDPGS
row,Structure (SMILES),"hERG current change (%, negative = inhibition) at 10uM"
1,O=C(c1ccccc1)N1CCC(c2nc(-c3ccc(S(=O)(=O)NCC4CCCO4)cc3)no2)CC1 (stereo not shown),-3.97%
2,O=C(c1cccs1)N1CCN(c2ccc(F)cc2)CC1,-9.63%
3,COc1ccc(OC)c(NC(=O)NCCN2CCN(c3ccccc3)CC2)c1,-17.6%
4,O=C1CSC(=S)N1c1cccc(O)c1,4.95%
5,COc1ccc2c(c1OC)C(=O)N(c1cccc(NC(C)=O)c1)C2,19.6%
6,COc1ccc(Oc2ccccc2C#N)cc1,1.78%
7,O=C1CC(N2CCN(c3ccccc3)CC2)C(=O)N1c1ccc2c(c1)OCO2 (stereo not shown),22.4%
8,Cc1cccc(OCC(=O)N(Cc2nnc(-c3ccccc3Cl)o2)C2CC2)c1,-54.2%
9,NC(=O)CN1CCN(c2ccccc2F)CC1,4.12%
10,COCC(=O)Nc1c(I)c(C(=O)NCC(O)CO)c(I)c(C(=O)N(C)CC(O)CO)c1I (stereo not shown),19.4%
11,COc1ccc(N2CCN(c3nc4cc(C)ccc4cc3C=O)CC2)cc1,16.6%
12,CC(C)Oc1ccccc1-c1cc(C(=O)N/N=C/c2cccnc2)c2ccccc2n1,-51.1%
13,C=C(C)c1cccc(C(C)(C)NC(=O)NC2CCCC2)c1,15.1%
14,CSC1=C(C#N)C(=O)NC(c2ccccc2O)S1 (stereo not shown),15.5%
15,CCOC(=O)c1ccc(NC(=O)Cn2nnc(-c3ccccc3C)n2)cc1,2.76%
16,CC(Sc1n[nH]c(=O)[nH]c1=O)C(=O)OCc1ccccc1 (stereo not shown),-1.04%
17,COc1ccccc1N1CCN(C(=O)CCCC2=NS(=O)(=O)c3ccccc3N2)CC1,2.62%
18,CCC(=O)NNC(=O)CCC(=O)Nc1ccc(C)cc1C,19.5%
19,CCOc1ccc(NC(=O)CCN2CCN(C)CC2)cc1,6.35%
20,CCOc1cc(C(=O)N2CCOCC2)ccc1OCc1ccccc1,10.9%
21,COc1cc2c(cc1OC)C(c1cccc([N+](=O)[O-])c1)=NCC2,1.22%
22,O=C1c2ccccc2C(=O)N1Cc1nc2ccccc2c(=O)n1-c1ccccn1,3.43%
23,Cc1ccc(CNC(=O)c2ccc(N3CCC4(CC3)CC(c3cccc(Br)c3)=NO4)c(NC(=O)c3ccco3)c2)cc1,9.37%
24,CC(C)(C)c1ccc(NC(=O)C2=CC=CN3CCS(=O)(=O)N=C23)cc1,-20.8%
25,COc1ccc(Oc2c(Cl)cnn(-c3ccc(Cl)c(Cl)c3)c2=O)cc1,-1.78%
